These results are taken from paper PMC4336329 (PLoS ONE, 2015).

Screen size: about 310,000 compounds; about 14,000 (4.5%) showed an effect of 50% or more. Effects have a minus sign here. Some of the results follow.
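Note: peak tail current of the secondary pulse compared with the same well before compound.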

human ether-à-go-go-related gene (hERG) potassium channel, sequence (Q12809 whole entry, looked up): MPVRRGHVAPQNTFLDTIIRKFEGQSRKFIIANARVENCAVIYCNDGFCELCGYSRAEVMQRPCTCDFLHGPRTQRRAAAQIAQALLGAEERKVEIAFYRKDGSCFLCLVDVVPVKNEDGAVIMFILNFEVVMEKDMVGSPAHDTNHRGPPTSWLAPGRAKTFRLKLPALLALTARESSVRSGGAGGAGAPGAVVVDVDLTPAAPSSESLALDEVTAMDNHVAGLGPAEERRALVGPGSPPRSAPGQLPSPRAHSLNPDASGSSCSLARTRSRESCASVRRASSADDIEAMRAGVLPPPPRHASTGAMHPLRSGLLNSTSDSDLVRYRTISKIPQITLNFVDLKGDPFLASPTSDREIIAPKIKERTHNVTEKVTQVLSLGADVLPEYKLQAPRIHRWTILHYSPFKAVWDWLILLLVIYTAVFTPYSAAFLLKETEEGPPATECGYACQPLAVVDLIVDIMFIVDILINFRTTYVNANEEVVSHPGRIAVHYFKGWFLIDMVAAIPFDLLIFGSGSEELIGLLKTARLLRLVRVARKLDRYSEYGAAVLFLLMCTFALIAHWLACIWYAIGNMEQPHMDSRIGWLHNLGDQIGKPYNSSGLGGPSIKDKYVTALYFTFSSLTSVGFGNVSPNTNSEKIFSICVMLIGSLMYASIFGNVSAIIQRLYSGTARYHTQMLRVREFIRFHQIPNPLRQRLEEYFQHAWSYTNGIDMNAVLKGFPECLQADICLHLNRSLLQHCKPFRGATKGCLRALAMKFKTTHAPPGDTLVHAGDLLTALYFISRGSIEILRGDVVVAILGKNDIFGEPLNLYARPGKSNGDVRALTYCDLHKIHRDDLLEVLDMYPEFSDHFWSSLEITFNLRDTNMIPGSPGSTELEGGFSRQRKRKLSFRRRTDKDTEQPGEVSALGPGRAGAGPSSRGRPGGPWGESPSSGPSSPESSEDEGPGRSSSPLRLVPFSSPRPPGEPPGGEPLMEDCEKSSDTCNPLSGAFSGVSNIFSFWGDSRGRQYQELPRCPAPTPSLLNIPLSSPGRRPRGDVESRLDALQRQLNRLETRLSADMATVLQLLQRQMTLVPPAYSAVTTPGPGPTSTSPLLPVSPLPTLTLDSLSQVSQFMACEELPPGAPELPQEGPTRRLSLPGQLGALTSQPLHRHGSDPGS

This experiment has as its target human ether-à-go-go-related gene (hERG) potassium channel (human, UniProt Q12809). The experiment is described as follows: primary screen, population patch clamp on CHO cells stably expressing hERG.
Regarding `CC(NC(=O)c1cccc(N(C)C)c1)c1ccc(-n2ccnc2)cc1` (stereo not drawn), the “hERG current change (%, negative = inhibition) at 10uM” value is on record as -68.3%. As for `Cc1nonc1-c1csc(N)n1`, the “hERG current change (%, negative = inhibition) at 10uM” value turned out to be 18.5%. Take `O=C(CSc1nc2ccccc2c(=O)n1-c1ccccc1)NCc1ccco1`: the “hERG current change (%, negative = inhibition) at 10uM” value is recorded as -15.1%. Next, `CN1CCN(c2ccc(NC(=O)c3sc4ccccc4c3Cl)cc2)CC1`: -0.959%; `O=S(=O)(/C=C/c1ccccc1)NC1CCCCCCC1`: -4.53%.

Take `CCCC12CN3CCN(CC(C3)/C1=N\NC(=O)Nc1ccccc1)C2`: the “hERG current change (%, negative = inhibition) at 10uM” value is -5.84%. Consider `CCOc1ccc(NS(=O)(=O)c2ccc(OC)c(NC(=O)c3ccc4c(c3)OCCO4)c2)cc1`, for which the “hERG current change (%, negative = inhibition) at 10uM” value is -2.7%. With `O=C(COC(=O)c1ccccn1)NCc1ccccc1Cl`, the “hERG current change (%, negative = inhibition) at 10uM” value was 9.9%. Turning to `CC(C)(C)c1ccc(Cc2n[nH]c(=S)[nH]c2=O)cc1`, the “hERG current change (%, negative = inhibition) at 10uM” value is on record as 3.29%.

Regarding `Cc1ccc(NC(=O)CN2C(=O)NC3(CCCCCCC3)C2=O)cc1C`, the “hERG current change (%, negative = inhibition) at 10uM” value was -1.5%. In the case of `Cc1nc(C)c(-c2ccc(SCC(=O)Nc3ccccc3)nn2)s1`, the “hERG current change (%, negative = inhibition) at 10uM” value is on record as 6.28%.

For `CCC1Oc2ccc(C)cc2N(CC(=O)N2CCCC2)C1=O` (stereo not drawn), the “hERG current change (%, negative = inhibition) at 10uM” value stood at 23.2%. As for `COc1ccc(NC(=O)c2cccc(Cn3cc(Br)cn3)c2)cn1`, the figure is -5.7%. As for `Nc1ncnc2nc(SCc3ccc(Cl)cc3Cl)[nH]c12`, the figure is 8.62%; as for `COc1ccc(-n2nc(C(=O)NCC(=O)NCC3CCCO3)c3ccccc3c2=O)cc1Cl` (stereo not drawn), -4.71%; as for `Cc1cc(S(=O)(=O)NCC(C)C)ccc1OCC(=O)N1CCOCC1`, -2.34%.

For `COC(=O)c1ccc(C2NC(C(=O)O)CS2)cc1` (stereo not drawn), the “hERG current change (%, negative = inhibition) at 10uM” value is 11.3%.

Regarding `CSCCC(NC(=O)C1CCC(C)CC1)C(=O)O` (stereo not drawn), the “hERG current change (%, negative = inhibition) at 10uM” value stood at 16.6%. As for `COc1ccc(OC)c(CCNC(=O)CS(=O)(=O)Cc2nc(-c3ccccc3Cl)oc2C)c1`, the figure is -14.1%; as for `COc1ccc(NS(=O)(=O)c2ccc(NC(C)=O)cc2)cc1OC`, 7.52%. As for `CCC1CCCCN1CCCNC(=O)Cn1nc(-c2ccccc2)ccc1=O` (stereo not drawn), the “hERG current change (%, negative = inhibition) at 10uM” value amounted to 2.27%.

Turning to `COc1cc(NC(=O)COC(=O)c2cnc(C)cn2)c(C)cc1[N+](=O)[O-]`, the “hERG current change (%, negative = inhibition) at 10uM” value amounted to 16.9%. Next, `COC(=O)c1ccc(NC(=O)C(=O)NCC2CCCO2)cc1` (stereo not drawn): 26.2%.

Consider `COc1ccc(C)cc1NS(=O)(=O)c1ccc2c(c1)N(C(C)=O)CCO2`, for which the “hERG current change (%, negative = inhibition) at 10uM” value is listed as -13.7%. As for `COc1ccc(C(=O)NC(=S)Nc2nc(C)cc(C)n2)cc1Br`, the figure is 23.1%. As to `CC(Sc1ccccc1)C(=O)N(CCC#N)Cc1cccnc1` (stereo not drawn), the “hERG current change (%, negative = inhibition) at 10uM” value is on record as 6.64%. As for `Cc1noc(C)c1CSc1nc2ccccc2n1C`, the figure is 0.614%; as for `COc1ccc(N2C(=O)CC(Sc3nc(C)cc(C)c3C#N)C2=O)cc1` (stereo not drawn), 8.43%. Take `COc1ccc(OCCOC(=O)c2ccc(F)c(S(=O)(=O)N3CCOCC3)c2)cc1`: the “hERG current change (%, negative = inhibition) at 10uM” value is recorded as -13.8%. As to `O=C(/C=C\NCC(=O)c1ccccc1)c1ccccc1`, the “hERG current change (%, negative = inhibition) at 10uM” value is listed as -22.2%. As for `CCN(C(=O)COC(=O)c1cccc(-n2cnnn2)c1)C1CCCCC1`, the figure is 4.55%; as for `COc1ccc(Cl)cc1NC(=O)CN1C(=O)NC2(CCCC2)C1=O`, 11.1%; as for `COc1ccc(NC(=O)CSc2nnc(-c3ccco3)n2N)cc1Cl`, -6.79%. As for `Cc1ccc(C(=O)Nc2ccc(Oc3ccc(C(=O)O)c(C(=O)O)c3)cc2)cc1C`, the figure is 2.57%; as for `CCCCCCCCCOC(=O)C1N2C(=O)[C@@H](NC(=O)COc3ccccc3)[C@H]2SC1(C)C` (stereo partly drawn), -2.03%. As for `O=C(Nc1nc(-c2ccco2)cs1)c1ccccc1`, the “hERG current change (%, negative = inhibition) at 10uM” value is reported as -2.84%.

Consider `CC1CN(Cc2ccccc2)c2nc3c(c(=O)n(CC(=O)O)c(=O)n3C)n2C1` (stereo not drawn), for which the “hERG current change (%, negative = inhibition) at 10uM” value worked out at 18.8%. Turning to `CN(C)S(=O)(=O)c1ccc(C(=O)OC2CCOC2=O)cc1` (stereo not drawn), the “hERG current change (%, negative = inhibition) at 10uM” value is recorded as 23.8%. As for `CN(C(=O)c1c[nH]c(=O)cc1C(F)(F)F)c1ccc(Cl)c(Cl)c1`, the figure is 17.8%.

Turning to `Cc1noc(C)c1C(=O)NCc1ccccc1`, the “hERG current change (%, negative = inhibition) at 10uM” value is 26.8%. For `c1ccc(-c2nnc(CSc3nncs3)o2)cc1`, the “hERG current change (%, negative = inhibition) at 10uM” value came out at 7.49%. For `COc1ccc(N2CC(C(=O)NCc3ccco3)CC2=O)cc1` (stereo not drawn), the “hERG current change (%, negative = inhibition) at 10uM” value was determined as 9.62%. As for `Cc1ccc(/C=C2\CC(C)CC3=C2NC(=S)NC3c2ccc(C)cc2)cc1` (stereo not drawn), the figure is -14.1%; as for `COc1ccccc1N1CCN(c2ncnc3sc(C)c(-c4ccccc4)c23)CC1`, 14.2%; as for `COC(=O)Nc1ccc(S(=O)(=O)NC2CCS(=O)(=O)C2)cc1` (stereo not drawn), 19%.
